We go through ten compounds from the antibiotic and cytotoxicity screens of Wong et al. (2023).

This is one part of the list.

The experiment deals with HepG2. The experiment in a line: cytotoxicity call (relative viability < 0.9). Particulars: 10 µM.
Turning to `C=CC[C@@H](CC(=O)N[C@@H](CO)Cc1ccccc1)C(=O)NCCOC(=O)[C@@H](CC=C)CC(=O)OC(C)(C)C`, the cytotoxicity call was “inactive”.

`CCCNC(=O)N1C[C@@H](O)COC[C@H]2O[C@@H](CC(=O)N3CCN(C)CC3)CC[C@@H]21`: the cytotoxicity call is “inactive”. Consider `Cc1ccc(OC(=O)N(C)C[C@@H]2OCc3ccccc3-c3ccccc3C(=O)N([C@H](C)CO)C[C@H]2C)cc1`, for which the cytotoxicity call is “inactive”. To `C[C@@H]1CN([C@@H](C)CO)C(=O)c2cc(NS(=O)(=O)c3ccccc3)ccc2O[C@@H](C)CCCCO[C@H]1CN(C)C(=O)c1ccccc1` belongs “inactive”; to `C[C@@H]1CN([C@H](C)CO)C(=O)c2cc(NC(=O)C3CC3)ccc2O[C@@H]1CN(C)S(=O)(=O)c1ccccc1`, “inactive”; to `C[C@@H]1CCCCO[C@H](CN(C)Cc2ccc3c(c2)OCO3)[C@@H](C)CN([C@@H](C)CO)C(=O)c2cc(NC(=O)c3ccccc3)ccc2O1`, “inactive”. In the case of `C[C@@H]1CN([C@@H](C)CO)C(=O)c2cc(NS(=O)(=O)c3ccccc3)ccc2O[C@@H]1CN(C)Cc1ccc(Cl)c(Cl)c1` it was “active”; in that of `COCC#Cc1ccc2c(c1)O[C@@H](CN(C)S(C)(=O)=O)[C@@H](C)CN([C@H](C)CO)S2(=O)=O`, “inactive”. To `C[C@@H]1CN([C@H](C)CO)C(=O)c2cc(NC(=O)Nc3ccc(C(F)(F)F)cc3)ccc2O[C@@H]1CN(C)Cc1ccc(C(F)(F)F)cc1` belongs “active”; to `C[C@H](CO)N1C[C@H](C)[C@H](CN(C)S(=O)(=O)c2ccc(Cl)cc2)OCCCC[C@H](C)Oc2ccc(NC(=O)NC3CCCCC3)cc2C1=O`, “inactive”.
